# A collection of fitness landscapes (doi:10.1126/science.1257360)
# Some of the results follow.
# B1: PhoQ; a variant is named by its letters at X, in order, P23837 (parent)
# chain: MKKLLRLFFPLSLRVRFLLATAAVVLVLSLAYGMVALIGYSVSFDKTTFRLLRGESNLFYTLAKWENNKLHVELPENIDKQSPTMTLIYDENGQLLWAQRDVPWLMKMIQPDWLKSNGFHEIEADVNDTSLLLSGDHSIQQQLQEVREDDDDAEMTHSVAVNVYPATSRMPKLTIVVVDTIPVELKSSYMVWSWFIYVLSANLLLVIPLLWVAAWWSLRPIEALAKEVRELEEHNRELLNPATTRELTSLVRNLNRLLKSERERYDKYRTTLTDLTHSLKTPLXXLQXXLRSLRSEKMSVSDAEPVMLEQISRISQQIGYYLHRASMRGGTLLSRELHPVAPLLDNLTSALNKVYQRKGVNISLDISPEISFVGEQNDFVEVMGNVLDNACKYCLEFVEISARQTDEHLYIVVEDDGPGIPLSKREVIFDRGQRVDTLRPGQGVGLAVAREITEQYEGKIVAGESMLGGARMEVIFGRQHSAPKDE
# Variants of: B1
# Assay: enrichment ratio after two sorts for PhoP signalling (ratio (wild type AVST 3.29)); higher = more functional
# Details: with PhoP (E. coli)
row,Variant,enrichment ratio
1,RAAT,≤ 0.25
2,ENHA,≤ 0.25
3,WEFK,≤ 0.25
4,QPWD,≤ 0.25
5,VSYH,≤ 0.25
6,HMTS,≤ 0.25
7,YWAQ,≤ 0.25
8,HLLT,≤ 0.25
9,GTKW,≤ 0.25
10,YYCM,≤ 0.25
11,FERY,≤ 0.25
12,CHPI,≤ 0.25
13,HSAA,≤ 0.25
14,ILNG,≤ 0.25
15,TMMR,5.23
16,RWFK,≤ 0.25
17,PSLE,≤ 0.25
18,QKKD,≤ 0.25
19,NHYG,≤ 0.25
20,QNKV,≤ 0.25
21,FIVR,≤ 0.25
22,KHYV,≤ 0.25
23,LKTW,≤ 0.25
24,DPGW,≤ 0.25

row,Variant,enrichment ratio
1,FLPW,≤ 0.25
2,DVFD,≤ 0.25
3,TVVQ,≤ 0.25
4,LYPF,≤ 0.25
5,DKLT,≤ 0.25
6,WMNR,≤ 0.25
7,LVYK,≤ 0.25
8,FWLA,≤ 0.25
9,SSMH,8.25
10,MFRP,≤ 0.25
11,CMLL,≤ 0.25
12,GQTI,≤ 0.25
13,NGPS,0.465
14,IDKH,≤ 0.25
15,SVWI,≤ 0.25
16,KIPV,≤ 0.25
17,LAFY,1.35
18,MHDL,≤ 0.25
19,MMIS,≤ 0.25
20,HCHV,≤ 0.25
21,VCEY,≤ 0.25
22,VLTM,≤ 0.25
23,MEAY,13
24,DSVK,≤ 0.25

row,Variant,enrichment ratio
1,YPYL,≤ 0.25
2,WSQM,≤ 0.25
3,RKGL,≤ 0.25
4,DNQH,≤ 0.25
5,MRVN,≤ 0.25
6,MNYV,3.49
7,PLKK,≤ 0.25
8,FKPL,≤ 0.25
9,GEFE,≤ 0.25
10,AETD,≤ 0.25
11,DYLG,≤ 0.25
12,SGYM,0.404
13,HLPQ,≤ 0.25
14,IDEC,≤ 0.25
15,YAFV,≤ 0.25
16,IETD,≤ 0.25
17,KLHH,≤ 0.25
18,PQNC,≤ 0.25
19,EHAN,2.57
20,IPVI,≤ 0.25
21,QVWE,6.13
22,EGWL,≤ 0.25
23,APPF,≤ 0.25
24,VSER,≤ 0.25

row,Variant,enrichment ratio
1,ENGH,≤ 0.25
2,AYRT,≤ 0.25
3,FRKF,≤ 0.25
4,QINV,≤ 0.25
5,DTHH,≤ 0.25
6,LNNE,≤ 0.25
7,KEDW,≤ 0.25
8,RIQD,≤ 0.25
9,PYYR,≤ 0.25
10,THEW,≤ 0.25
11,KRPA,≤ 0.25
12,HRPH,≤ 0.25
13,DSVQ,≤ 0.25
14,HILL,≤ 0.25
15,FANG,≤ 0.25
16,GNSI,4.37
17,YLMT,≤ 0.25
18,QWPL,≤ 0.25
19,HGVV,≤ 0.25
20,NCMM,≤ 0.25
21,KAFR,≤ 0.25
22,YGKD,≤ 0.25
23,VAWN,≤ 0.25
24,ARGL,≤ 0.25

row,Variant,enrichment ratio
1,VTHF,≤ 0.25
2,ILNA,≤ 0.25
3,AFSR,≤ 0.25
4,ERRK,≤ 0.25
5,GCFF,≤ 0.25
6,IRVF,≤ 0.25
7,RFNF,≤ 0.25
8,MSDH,≤ 0.25
9,HEPT,≤ 0.25
10,TLIG,≤ 0.25
11,RKTC,≤ 0.25
12,DPAQ,≤ 0.25
13,FTRI,≤ 0.25
14,GVYH,≤ 0.25
15,DPEW,≤ 0.25
16,SMSA,14.6
17,AVNT,≤ 0.25
18,PNWL,≤ 0.25
19,AWGT,≤ 0.25
20,ILSE,≤ 0.25
21,AIIL,1.11
22,VIYT,≤ 0.25
23,LAFM,1.77
24,RAWM,≤ 0.25

row,Variant,enrichment ratio
1,VSCS,≤ 0.25
2,HGQR,≤ 0.25
3,VQMT,≤ 0.25
4,TKKE,≤ 0.25
5,PSDV,≤ 0.25
6,VANP,≤ 0.25
7,KFHE,≤ 0.25
8,YICC,≤ 0.25
9,SGDG,≤ 0.25
10,NWMF,≤ 0.25
11,LMHM,≤ 0.25
12,YKTE,≤ 0.25
13,TCRQ,≤ 0.25
14,MNNF,5.86
15,DDMM,≤ 0.25
16,VGPE,≤ 0.25
17,YKNE,≤ 0.25
18,WYML,≤ 0.25
19,IQKW,≤ 0.25
20,DWEF,≤ 0.25
21,WRRT,≤ 0.25
22,QTFW,≤ 0.25
23,WFQD,≤ 0.25
24,PCII,≤ 0.25

row,Variant,enrichment ratio
1,MTEP,≤ 0.25
2,FVYC,≤ 0.25
3,DTCL,0.261
4,WLGK,≤ 0.25
5,NPNF,≤ 0.25
6,KECL,≤ 0.25
7,DATW,≤ 0.25
8,NADV,≤ 0.25
9,EEYG,≤ 0.25
10,RISR,≤ 0.25
11,DAWC,≤ 0.25
12,WTGP,≤ 0.25
13,YCNN,≤ 0.25
14,VFLE,≤ 0.25
15,PYQQ,≤ 0.25
16,DTHR,≤ 0.25
17,IFKG,≤ 0.25
18,FDKT,≤ 0.25
19,HYLM,≤ 0.25
20,RCIG,≤ 0.25
21,IGNV,≤ 0.25
22,WGYN,≤ 0.25
23,VIAS,≤ 0.25
24,FTFF,≤ 0.25

row,Variant,enrichment ratio
1,TCPE,≤ 0.25
2,VGWI,1.26
3,ICSR,≤ 0.25
4,PLRC,≤ 0.25
5,HLPI,0.276
6,WKKG,≤ 0.25
7,LQEK,≤ 0.25
8,IGWL,≤ 0.25
9,NGIA,≤ 0.25
10,KTMW,≤ 0.25
11,DNKW,≤ 0.25
12,SGIM,23.7
13,FWFE,≤ 0.25
14,KIWL,≤ 0.25
15,MLSH,≤ 0.25
16,FYCP,≤ 0.25
17,AKCI,10.1
18,IFVG,≤ 0.25
19,TDRF,≤ 0.25
20,SLMM,5.51
21,AAAS,2.16
22,YYMP,≤ 0.25
23,MDDN,≤ 0.25
24,SFEW,≤ 0.25

row,Variant,enrichment ratio
1,WNPQ,≤ 0.25
2,GHIH,≤ 0.25
3,EVPV,≤ 0.25
4,IQMF,≤ 0.25
5,SESC,18.4
6,SRQN,≤ 0.25
7,RMYT,≤ 0.25
8,MCFM,8.33
9,NTWD,≤ 0.25
10,ALTM,5.06
11,WCTF,≤ 0.25
12,KCGT,≤ 0.25
13,TQWV,7.42
14,IPNS,≤ 0.25
15,WNPD,≤ 0.25
16,AAGC,≤ 0.25
17,KMWQ,≤ 0.25
18,RTLC,≤ 0.25
19,NAFE,≤ 0.25
20,VHIR,≤ 0.25
21,RCPC,≤ 0.25
22,KNGE,≤ 0.25
23,FGKH,≤ 0.25
24,MSTH,≤ 0.25

row,Variant,enrichment ratio
1,SNQD,≤ 0.25
2,SYTE,≤ 0.25
3,IPAR,≤ 0.25
4,MHPE,≤ 0.25
5,RWLT,≤ 0.25
6,EYNI,≤ 0.25
7,NHPE,≤ 0.25
8,YMKI,≤ 0.25
9,NWLM,≤ 0.25
10,KCKE,≤ 0.25
11,KQEG,≤ 0.25
12,SITI,19.7
13,QEVN,≤ 0.25
14,SEIQ,22.9
15,YTKK,≤ 0.25
16,QPDW,≤ 0.25
17,DWMG,≤ 0.25
18,NADK,≤ 0.25
19,TGFY,5.21
20,SRLC,≤ 0.25
21,RHQD,≤ 0.25
22,YLRP,≤ 0.25
23,VMDN,≤ 0.25
24,LRPQ,≤ 0.25

row,Variant,enrichment ratio
1,DPTG,≤ 0.25
2,YRGC,≤ 0.25
3,RGQA,≤ 0.25
4,HWAM,≤ 0.25
5,LVRY,≤ 0.25
6,KTFM,≤ 0.25
7,LSIA,≤ 0.25
8,FWSF,≤ 0.25
9,RVLF,≤ 0.25
10,LTTK,≤ 0.25
11,SAYQ,≤ 0.25
12,GFHN,≤ 0.25
13,NFSC,≤ 0.25
14,TYPM,≤ 0.25
15,DKQN,≤ 0.25
16,IHGD,≤ 0.25
17,NLRV,≤ 0.25
18,PIYY,≤ 0.25
19,QPGS,≤ 0.25
20,SCGK,≤ 0.25
21,PFDK,≤ 0.25
22,SYNP,≤ 0.25
23,HQYQ,≤ 0.25
24,HFQA,≤ 0.25

row,Variant,enrichment ratio
1,ARVW,≤ 0.25
2,WEIF,≤ 0.25
3,VSPA,≤ 0.25
4,DRFI,≤ 0.25
5,HLFA,≤ 0.25
6,VSYG,≤ 0.25
7,WCRH,≤ 0.25
8,ILRI,≤ 0.25
9,VLKA,≤ 0.25
10,LQHG,≤ 0.25
11,WYAY,≤ 0.25
12,QHHH,≤ 0.25
13,GDVL,0.987
14,VQIK,≤ 0.25
15,HMMS,≤ 0.25
16,NALP,≤ 0.25
17,DGGS,≤ 0.25
18,HKEK,≤ 0.25
19,ICHS,≤ 0.25
20,RIEF,≤ 0.25
21,ERTS,≤ 0.25
22,FTDL,≤ 0.25
23,PVGG,≤ 0.25
24,GIYW,≤ 0.25

row,Variant,enrichment ratio
1,WGVS,≤ 0.25
2,DDWT,≤ 0.25
3,ITCK,≤ 0.25
4,DKVM,≤ 0.25
5,PSAY,≤ 0.25
6,KKAS,≤ 0.25
7,YWSV,≤ 0.25
8,IQDH,≤ 0.25
9,TVTL,15.2
10,FAMV,7.9
11,KIQS,≤ 0.25
12,IGLM,14
13,DYVK,≤ 0.25
14,WIRP,≤ 0.25
15,DNND,≤ 0.25
16,DFRP,≤ 0.25
17,RERR,≤ 0.25
18,RAAP,≤ 0.25
